# Measured values as given in the supplement of paper PMC8728848.
# This is one part of the list.
# B1: CBM13 2a (Mycobacterium tuberculosum), P64849 (protein)
# chain: DGPVQLKSRLGDVCLDAPSGSWFSPLVINPCNGTDFQRWNLTDDRQVESVAFPGECVNIGNALWARLQPCVNWISQHWTVQPDGLVKSDLDACLTVLGGPDPGTWVSTRWCDPNAPDQQWDSVPLEHHHHHH
# What was measured:
# Test in all cases: glycan array binding signal (z-score within array); higher = stronger binding
# Settings in all cases: glycan notation: IUPAC condensed, linker removed
# [1] = molecular target: GlcNAc(b1-2)Gal(b1-3)GalNAc
# Procedure, shortened: (§1)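 The binding signal is a Z-score computed within each array and averaged over linkers. Arrays of the same protein sequence at different concentrations or buffers were also averaged together. Data originate from 3228 arrays in the Consortium for Functional Glycomics database, kept only where the protein sequence was available.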
# [2] = molecular target: GlcNAc(b1-2)Man(a1-3)[GlcNAc(b1-2)Man(a1-6)]Man(b1-4)GlcNAc(b1-4)GlcNAc
# Procedure, shortened: as §1
# [3] = molecular target: GlcNAc(b1-2)Man(a1-3)[GlcNAc(b1-2)Man(a1-6)]Man(b1-4)GlcNAc(b1-4)[Fuc(a1-6)]GlcNAc
# Procedure, shortened: as §1
# [4] = molecular target: GlcNAc(b1-2)Man(a1-3)[GlcNAc(b1-4)][GlcNAc(b1-2)Man(a1-6)]Man(b1-4)GlcNAc(b1-4)GlcNAc
# Procedure, shortened: as §1
# [5] = molecular target: GlcNAc(b1-2)Man(a1-3)[GlcNAc(b1-4)][GlcNAc(b1-2)Man(a1-6)]Man(b1-4)GlcNAc(b1-4)[Fuc(a1-6)]GlcNAc
# Procedure, shortened: as §1
# [6] = molecular target: GlcNAc(b1-2)[GlcNAc(b1-4)]Man(a1-3)[GlcNAc(b1-2)Man(a1-6)]Man(b1-4)GlcNAc(b1-4)GlcNAc
# Procedure, shortened: as §1
# [7] = molecular target: GlcNAc(b1-2)[GlcNAc(b1-4)]Man(a1-3)[GlcNAc(b1-4)][GlcNAc(b1-2)Man(a1-6)]Man(b1-4)GlcNAc(b1-4)GlcNAc
# Procedure, shortened: as §1
# [8] = molecular target: GlcNAc(b1-2)[GlcNAc(b1-4)]Man(a1-3)[GlcNAc(b1-4)][GlcNAc(b1-2)[GlcNAc(b1-6)]Man(a1-6)]Man(b1-4)GlcNAc(b1-4)GlcNAc
# Procedure, shortened: as §1
# [9] = molecular target: GlcNAc(b1-2)[GlcNAc(b1-4)]Man(a1-3)[GlcNAc(b1-4)][GlcNAc(b1-2)[GlcNAc(b1-6)]Man(a1-6)]Man(b1-4)GlcNAc(b1-4)[Fuc(a1-6)]GlcNAc
# Procedure, shortened: as §1
# [10] = molecular target: GlcNAc(b1-2)[GlcNAc(b1-6)]Man(a1-6)[GlcNAc(b1-2)Man(a1-3)]Man(b1-4)GlcNAc(b1-4)GlcNAc
# Procedure, shortened: as §1
# [11] = molecular target: GlcNAc(b1-2)[GlcNAc(b1-6)]Man(a1-6)[GlcNAc(b1-2)Man(a1-3)]Man(b1-4)GlcNAc(b1-4)[Fuc(a1-6)]GlcNAc
# Procedure, shortened: as §1
# [12] = molecular target: GlcNAc(b1-2)[GlcNAc(b1-6)]Man(a1-6)[GlcNAc(b1-4)][GlcNAc(b1-2)Man(a1-3)]Man(b1-4)GlcNAc(b1-4)GlcNAc
# Procedure, shortened: as §1
# GlcNAc(b1-3)Fuc = molecular target: GlcNAc(b1-3)Fuc
# Procedure, shortened: as §1
# GlcNAc(b1-3)Gal = molecular target: GlcNAc(b1-3)Gal
# Procedure, shortened: as §1
# [13] = molecular target: GlcNAc(b1-3)Gal(b1-3)GalNAc
# Procedure, shortened: as §1
# GlcNAc(b1-3)Gal(b1-4)Glc = molecular target: GlcNAc(b1-3)Gal(b1-4)Glc
# Procedure, shortened: as §1
# [14] = molecular target: GlcNAc(b1-3)Gal(b1-4)GlcNAc
# Procedure, shortened: as §1
# [15] = molecular target: GlcNAc(b1-3)Gal(b1-4)GlcNAc(b1-2)Man(a1-3)[GlcNAc(b1-3)Gal(b1-4)GlcNAc(b1-2)Man(a1-6)]Man(b1-4)GlcNAc(b1-4)GlcNAc
# Procedure, shortened: as §1
# [16] = molecular target: GlcNAc(b1-3)Gal(b1-4)GlcNAc(b1-2)Man(a1-3)[GlcNAc(b1-3)Gal(b1-4)GlcNAc(b1-2)Man(a1-6)]Man(b1-4)GlcNAc(b1-4)[Fuc(a1-6)]GlcNAc
# Procedure, shortened: as §1
# [17] = molecular target: GlcNAc(b1-3)Gal(b1-4)GlcNAc(b1-2)[GlcNAc(b1-3)Gal(b1-4)GlcNAc(b1-6)]Man(a1-6)[GlcNAc(b1-3)Gal(b1-4)GlcNAc(b1-2)Man(a1-3)]Man(b1-4)GlcNAc(b1-4)GlcNAc
# Procedure, shortened: as §1
# [18] = molecular target: GlcNAc(b1-3)Gal(b1-4)GlcNAc(b1-3)Gal(b1-4)GlcNAc
# Procedure, shortened: as §1
# [19] = molecular target: GlcNAc(b1-3)Gal(b1-4)GlcNAc(b1-3)Gal(b1-4)GlcNAc(b1-2)Man(a1-3)[GlcNAc(b1-3)Gal(b1-4)GlcNAc(b1-3)Gal(b1-4)GlcNAc(b1-2)Man(a1-6)]Man(b1-4)GlcNAc(b1-4)GlcNAc
# Procedure, shortened: as §1
# [20] = molecular target: GlcNAc(b1-3)Gal(b1-4)GlcNAc(b1-3)Gal(b1-4)GlcNAc(b1-2)Man(a1-3)[GlcNAc(b1-3)Gal(b1-4)GlcNAc(b1-3)Gal(b1-4)GlcNAc(b1-2)Man(a1-6)]Man(b1-4)GlcNAc(b1-4)[Fuc(a1-6)]GlcNAc
# Procedure, shortened: as §1
# [21] = molecular target: GlcNAc(b1-3)Gal(b1-4)GlcNAc(b1-3)Gal(b1-4)GlcNAc(b1-2)[GlcNAc(b1-3)Gal(b1-4)GlcNAc(b1-3)Gal(b1-4)GlcNAc(b1-6)]Man(a1-6)[GlcNAc(b1-3)Gal(b1-4)GlcNAc(b1-3)Gal(b1-4)GlcNAc(b1-2)Man(a1-3)]Man(b1-4)GlcNAc(b1-4)[Fuc(a1-6)]GlcNAc
# Procedure, shortened: as §1
# [22] = molecular target: GlcNAc(b1-3)Gal(b1-4)GlcNAc(b1-3)Gal(b1-4)GlcNAc(b1-3)Gal(b1-4)GlcNAc(b1-2)Man(a1-3)[GlcNAc(b1-3)Gal(b1-4)GlcNAc(b1-3)Gal(b1-4)GlcNAc(b1-3)Gal(b1-4)GlcNAc(b1-2)Man(a1-6)]Man(b1-4)GlcNAc(b1-4)GlcNAc
# Procedure, shortened: as §1
# [23] = molecular target: GlcNAc(b1-3)Gal(b1-4)GlcNAc(b1-3)Gal(b1-4)GlcNAc(b1-3)Gal(b1-4)GlcNAc(b1-2)Man(a1-3)[GlcNAc(b1-3)Gal(b1-4)GlcNAc(b1-3)Gal(b1-4)GlcNAc(b1-3)Gal(b1-4)GlcNAc(b1-2)Man(a1-6)]Man(b1-4)GlcNAc(b1-4)[Fuc(a1-6)]GlcNAc
# Procedure, shortened: as §1
# [24] = molecular target: GlcNAc(b1-3)Gal(b1-4)GlcNAc(b1-3)Gal(b1-4)GlcNAc(b1-3)Gal(b1-4)GlcNAc(b1-2)[GlcNAc(b1-3)Gal(b1-4)GlcNAc(b1-3)Gal(b1-4)GlcNAc(b1-3)Gal(b1-4)GlcNAc(b1-6)]Man(a1-6)[GlcNAc(b1-3)Gal(b1-4)GlcNAc(b1-3)Gal(b1-4)GlcNAc(b1-3)Gal(b1-4)GlcNAc(b1-2)Man(a1-3)]Man(b1-4)GlcNAc(b1-4)[Fuc(a1-6)]GlcNAc
# Procedure, shortened: as §1
# [25] = molecular target: GlcNAc(b1-3)Gal(b1-4)GlcNAc(b1-3)Gal(b1-4)GlcNAc(b1-3)Gal(b1-4)GlcNAc(b1-3)Gal(b1-4)GlcNAc(b1-2)Man(a1-3)[GlcNAc(b1-3)Gal(b1-4)GlcNAc(b1-3)Gal(b1-4)GlcNAc(b1-3)Gal(b1-4)GlcNAc(b1-3)Gal(b1-4)GlcNAc(b1-2)Man(a1-6)]Man(b1-4)GlcNAc(b1-4)GlcNAc
# Procedure, shortened: as §1
# [26] = molecular target: GlcNAc(b1-3)Gal(b1-4)GlcNAc(b1-3)Gal(b1-4)GlcNAc(b1-3)Gal(b1-4)GlcNAc(b1-3)Gal(b1-4)GlcNAc(b1-2)Man(a1-3)[GlcNAc(b1-3)Gal(b1-4)GlcNAc(b1-3)Gal(b1-4)GlcNAc(b1-3)Gal(b1-4)GlcNAc(b1-3)Gal(b1-4)GlcNAc(b1-2)Man(a1-6)]Man(b1-4)GlcNAc(b1-4)[Fuc(a1-6)]GlcNAc
# Procedure, shortened: as §1
# [27] = molecular target: GlcNAc(b1-3)Gal(b1-4)GlcNAc(b1-3)Gal(b1-4)GlcNAc(b1-3)Gal(b1-4)GlcNAc(b1-3)Gal(b1-4)GlcNAc(b1-2)[GlcNAc(b1-3)Gal(b1-4)GlcNAc(b1-3)Gal(b1-4)GlcNAc(b1-3)Gal(b1-4)GlcNAc(b1-3)Gal(b1-4)GlcNAc(b1-6)]Man(a1-6)[GlcNAc(b1-3)Gal(b1-4)GlcNAc(b1-3)Gal(b1-4)GlcNAc(b1-3)Gal(b1-4)GlcNAc(b1-3)Gal(b1-4)GlcNAc(b1-2)Man(a1-3)]Man(b1-4)GlcNAc(b1-4)[Fuc(a1-6)]GlcNAc
# Procedure, shortened: as §1
# [28] = molecular target: GlcNAc(b1-3)Gal(b1-4)GlcNAc(b1-3)Gal(b1-4)GlcNAc(b1-3)GalNAc
# Procedure, shortened: as §1
# [29] = molecular target: GlcNAc(b1-3)Gal(b1-4)GlcNAc(b1-3)GalNAc
# Procedure, shortened: as §1
# [30] = molecular target: GlcNAc(b1-3)Gal(b1-4)GlcNAc(b1-3)[GlcNAc(b1-3)Gal(b1-4)GlcNAc(b1-3)]GalNAc
# Procedure, shortened: as §1
# [31] = molecular target: GlcNAc(b1-3)Gal(b1-4)GlcNAc(b1-6)[Gal(b1-3)]GalNAc
# Procedure, shortened: as §1
# [32] = molecular target: GlcNAc(b1-3)Gal(b1-4)GlcNAc(b1-6)[GlcNAc(b1-3)Gal(b1-3)]GalNAc
# Procedure, shortened: as §1
# [33] = molecular target: GlcNAc(b1-3)Gal(b1-4)GlcNAc(b1-6)[GlcNAc(b1-3)]Gal(b1-4)GlcNAc
# Procedure, shortened: as §1
# GlcNAc(b1-3)GalNAc = molecular target: GlcNAc(b1-3)GalNAc
# Procedure, shortened: as §1
# GlcNAc(b1-3)Man = molecular target: GlcNAc(b1-3)Man
# Procedure, shortened: as §1
# [34] = molecular target: GlcNAc(b1-3)[GlcNAc(b1-4)][GlcNAc(b1-6)]GlcNAc
# Procedure, shortened: as §1
# [35] = molecular target: GlcNAc(b1-3)[GlcNAc(b1-6)]Gal(b1-4)GlcNAc
# Procedure, shortened: as §1
# [36] = molecular target: GlcNAc(b1-3)[GlcNAc(b1-6)]GalNAc
# Procedure, shortened: as §1
# [37] = molecular target: GlcNAc(b1-4)Gal(b1-4)GlcNAc
# Procedure, shortened: as §1
# GlcNAc(b1-4)GlcNAc = molecular target: GlcNAc(b1-4)GlcNAc
# Procedure, shortened: as §1
# [38] = molecular target: GlcNAc(b1-4)GlcNAc(b1-4)GlcNAc
# Procedure, shortened: as §1
# [39] = molecular target: GlcNAc(b1-4)GlcNAc(b1-4)GlcNAc(b1-4)GlcNAc(b1-4)GlcNAc
# Procedure, shortened: as §1
binder,measurement,setting,value
B1,glycan array binding signal (z-score),[1],-0.328
same,glycan array binding signal (z-score),[2],-0.249
same,glycan array binding signal (z-score),[3],-0.038
same,glycan array binding signal (z-score),[4],-0.458
same,glycan array binding signal (z-score),[5],-0.311
same,glycan array binding signal (z-score),[6],-0.127
same,glycan array binding signal (z-score),[7],-0.318
same,glycan array binding signal (z-score),[8],-0.276
same,glycan array binding signal (z-score),[9],-0.406
same,glycan array binding signal (z-score),[10],0.094
same,glycan array binding signal (z-score),[11],-0.254
same,glycan array binding signal (z-score),[12],-0.256
same,glycan array binding signal (z-score),GlcNAc(b1-3)Fuc,-0.33
same,glycan array binding signal (z-score),GlcNAc(b1-3)Gal,-0.226
same,glycan array binding signal (z-score),[13],-0.175
same,glycan array binding signal (z-score),GlcNAc(b1-3)Gal(b1-4)Glc,-0.218
same,glycan array binding signal (z-score),[14],-0.241
same,glycan array binding signal (z-score),[15],-0.364
same,glycan array binding signal (z-score),[16],0.006
same,glycan array binding signal (z-score),[17],0.452
same,glycan array binding signal (z-score),[18],-0.266
same,glycan array binding signal (z-score),[19],2.24
same,glycan array binding signal (z-score),[20],-0.151
same,glycan array binding signal (z-score),[21],0.312
same,glycan array binding signal (z-score),[22],0.109
same,glycan array binding signal (z-score),[23],-0.087
same,glycan array binding signal (z-score),[24],0.03
same,glycan array binding signal (z-score),[25],-0.137
same,glycan array binding signal (z-score),[26],-0.169
same,glycan array binding signal (z-score),[27],0.303
same,glycan array binding signal (z-score),[28],2.54
same,glycan array binding signal (z-score),[29],-0.396
same,glycan array binding signal (z-score),[30],-0.326
same,glycan array binding signal (z-score),[31],-0.18
same,glycan array binding signal (z-score),[32],-0.173
same,glycan array binding signal (z-score),[33],-0.195
same,glycan array binding signal (z-score),GlcNAc(b1-3)GalNAc,-0.188
same,glycan array binding signal (z-score),GlcNAc(b1-3)Man,-0.274
same,glycan array binding signal (z-score),[34],-0.389
same,glycan array binding signal (z-score),[35],-0.462
same,glycan array binding signal (z-score),[36],-0.338
same,glycan array binding signal (z-score),[37],-0.553
same,glycan array binding signal (z-score),GlcNAc(b1-4)GlcNAc,-0.282
same,glycan array binding signal (z-score),[38],-0.313
same,glycan array binding signal (z-score),[39],-0.213
